Measurements: US11547761B1, “Antibody adjuvant conjugates” (The Board of Trustees of the Leland Stanford Junior …, priority 2016, dated 2023)

What was measured:
[1] = system: human APCs (myeloid cells); test: APC-tumor co-culture / myeloid cell stimulation, surface markers by flow cytometry; assay type: cell-based; conditions: 18 hours of stimulation; compared with the corresponding unconjugated antibody unless the value names another comparator
Source text: (§1) Human antigen presenting cells (APCs) were negatively selected from human peripheral blood mononuclear cells obtained from healthy blood donors (Stanford Blood Center) by density gradient centrifugation using a RosetteSep Human Monocyte Enrichment Cocktail (Stem Cell Technologies) containing monoclonal antibodies against CD2, CD3, CD8, CD19, CD56, CD66b and CD235a. Immature APCs were subsequently purified to >97% purity via negative selection using an EasySep Human Monocyte Enrichment Kit without CD16 depletion containing monoclonal antibodies against CD2, CD3, CD19, CD20, CD56, CD66b, CD123 and CD235a.
Tumor cells were resuspended in PBS with 0.1% fetal bovine serum (FBS) at 1 to 10×10^6 cells/mL. Cells were subsequently incubated with 2 μM CFSE to yield a final concentration of 1 μM. The reaction was ended after 2 minutes via the addition of 10 mL complete medium with 10% FBS and washed once with complete medium. Cells were either fixed in 2% paraformaldehyde and washed three times with PBS or left unfixed prior to freezing the cells in 10% DMSO, 20% FBS and 70% medium.
(§2) 2×10^5 APCs were incubated with or without 6.5×10^5 autologous or allogeneic CFSE-labeled tumor cells in 96-well plates (Corning) containing IMDM medium (Gibco) supplemented with 10% fetal bovine serum, 100 U/mL penicillin, 100 μg/mL streptomycin, 2 mM L-glutamine, sodium pyruvate, non-essential amino acids, 50 μM 2-ME and, where indicated, various concentrations of anti-tumor antibody and the indicated adjuvants. Cells and cell-free supernatants were analyzed after 18 hours via flow cytometry.
as §1, with “[…]” for “CD2, CD3, CD8, CD19, CD56, CD66b”, “[…].” for “CD235a.”, “CD14, CD16, CD40, CD86, CD123,” for “CD2, CD3, CD19, CD20, CD56, CD66b, CD123”
as §2, with “antibody.” for “anti-tumor antibody and the indicated adjuvants.”
2×10^5 APCs were incubated with or without 6.5×10^5 allogeneic CFSE-labeled tumor cells in 96-well plates (Corning) containing IMDM medium (Gibco) supplemented with 10% fetal bovine serum, 100 U/mL penicillin, 100 μg/mL streptomycin, 2 mM L-glutamine, sodium pyruvate, non-essential amino acids and, where indicated, various concentrations of unconjugated CD20 antibody, and immunoconjugates of the invention were prepared according to the examples above. Cells and cell-free supernatants were analyzed after 18 hours via flow cytometry or ELISA.

[2] = system: human APCs (myeloid cells); test: Cytokine secretion from human APCs / myeloid cells (cell free supernatants); assay type: cell-based; conditions: 36 hours of stimulation; compared to equimolar unconjugated antibody
Experimental: After 18 hours, cell free supernatants were analyzed for cytokine secretion via cytokine bead arrays; n=3. P-values≤0.05 depicted by *, P-values≤0.01 depicted by **, P-values≤0.001 depicted by ***, P-values≤0.0001 depicted by ****.
as §2, with “Cells and cell-free supernatants were analyzed after 18 hours via flow cytometry.” left out
While the expression of T cell stimulatory molecules such as CD40, CD86 and HLA-DR is necessary for effective T cell activation, APCs also influence the nature of the ensuing immune response through the secretion of cytokines. Therefore, the capacity of immunoconjugates to elicit cytokine secretion in human APCs following stimulation was investigated as described above.
The capacity of these immunoconjugates to elicit cytokine secretion in human APCs following stimulation was investigated as described in Example 3 above. […]

B1: Elotuzumab Boltbody (conjugate, chains of the INN, looked up)
heavy: EVQLVESGGGLVQPGGSLRLSCAASGFDFSRYWMSWVRQAPGKGLEWIGEINPDSSTINYAPSLKDKFIISRDNAKNSLYLQMNSLRAEDTAVYYCARPDGNYWYFDVWGQGTLVTVSS[human IgG1 constant region cut from this listing]
light: DIQMTQSPSSLSASVGDRVTITCKASQDVGIAVAWYQQKPGKVPKLLIYWASTRHTGVPDRFSGSGSGTDFTLTISSLQPEDVATYYCQQYSSYPYTFGQGTKVEIKRTVAAPSVFIFPPSDEQLKSGTASVVCLLNNFYPREAKVQWKVDNALQSGNSQESVTEQDSKDSTYSLSSTLTLSKADYEKHKVYACEVTHQGLSSPVTKSFNRGEC
modifications: adjuvant conjugate
superior: CD14 downregulation on myeloid cells [1] | CD16 downregulation on myeloid cells [1] | CD40 upregulation on myeloid cells [1] | CD86 upregulation on myeloid cells [1] | CD123 upregulation on myeloid cells [1] | HLA-DR upregulation (expression) on myeloid cells [1] | IL-1β secretion from myeloid cells [2] | TNFα secretion from myeloid cells [2]
